# Data: ChEMBL document CHEMBL4888484, “Replenishing the malaria drug discovery pipeline: Screening and hit evaluation of the MMV Hit Generation Library 1 (HGL1) against asexual blood stage Plasmodium falciparum ,using a nano luciferase reporter read-out” (2022)
# Hit rate of the full screen: of about 150,000 compounds, about 540 (0.36%) showed an effect of 50% or more. The list shows a part of the results.
# Tested on: Plasmodium falciparum
# Assay: Primary screen in NF54 nanoGlo assay, in single point, at 2uM, 72h; a lower Z score goes with more inhibition
# Format: functional, Erythrocyte
# Settings: timepoint 72 hour
Compound,% Inhibition [%],Z score
C[C@H]1CCN(S(=O)(=O)Nc2cccc3[nH]ncc23)C1,-3,0.49
COC1CCC(NC[C@H]2COc3ccccc3O2)CC1 (stereo partly drawn),-7,1.18
Cc1csc([C@H]2NC3(CCCC3)C(=O)N2CC(C)C)n1,-3,0.31
CN(c1ccc(Br)cc1F)S(=O)(=O)N1CCCC1,-8,0.9
FC(F)(F)c1ccnc(N2CCC[C@@H]2Cn2cncn2)n1,-2,0.28
C[C@H](Oc1ccc(Br)cc1)C(=O)Nc1nc(-c2ccccn2)cs1,1,-0.12
Cc1ccccc1OCC(=O)N1CCC[C@@H]1C(=O)O,-14,1.61
Cc1ccccc1C(NC(=O)NC1CCN(CC2CCOC2)CC1)C(C)C (stereo not drawn),-9,1.15
CC(C)CN1CC2(CCN(C(=O)[C@H](F)c3ccccc3)CC2)CC1=O,3,-0.7
CN(CC1CCCC1)C(=O)c1ccc(S(=O)(=O)NCCO)s1,-1,0.13
Cc1ccc(F)cc1CN1CCN2CCOC[C@@H]2C1,6,-0.74
N[C@H]1CCN(C(=O)COCc2ccccc2Cl)C1,-9,0.88
CCC(C)(C)N(C)C(=O)CCc1cccs1,-7,0.95
O=C(c1coc(-c2cccnc2)n1)N1CCC[C@@]1(c1ccccc1)C(F)(F)F,-1,0.2
O=C(c1ccc(F)cc1)N1CC[C@H](CCOc2ccc(F)cc2)C1,-18,3.43
O=C1CC[C@@]2(CCCN(C(=O)c3ccsc3)C2)CN1CCc1c[nH]cn1,-14,1.37
Cc1ccnc(NC(=O)CC2CC3CCC2C3)c1 (stereo not drawn),-2,0.43
O=S(=O)(Nc1cc(-c2ccncc2)no1)c1ccc(Br)cc1,-5,0.47
Cc1cc(=O)n(CC(=O)NCc2ccc(Cl)cc2)c(N2CCc3ccccc3C2)n1,5,-0.73
COC[C@H](NCC(=O)N(C)C)c1ccc(C)o1,-6,0.7
COC[C@H](CO)NC(=O)Nc1cc(-c2ccoc2C)on1,13,-1.65
COc1cc(=O)n2c(c1C(=O)NC1CCN(Cc3ccccc3)CC1)CCCCC2,-8,0.91
CC[C@H](C)NCCOCCOc1ccc(C)cc1,-9,1.21
CC(C)c1nnc(CN2CCC[C@H]2c2ncn[nH]2)n1C,-1,0.1
N#Cc1ccc(CN2C[C@@H]3C[C@H]2C(=O)NC[C@H]2O[C@H](CCOc4cc(C5CCCC5)ccc4C(=O)N3)CC[C@@H]2O)cc1,-2,0.31
COc1cccc(-c2nc3ccc(-c4cccc(C(F)(F)F)c4)cn3c2CN2CCN(C(=O)C3CCCC3)CC2)c1,0,0.02
Cc1cc(C)nc(NC(=O)N2C[C@@H](C)[C@](C)(CN)C2)c1,-12,1.14

Compound,% Inhibition [%],Z score
Cc1cccc(N2CCN(c3ccc(C(=O)O)cc3NS(=O)(=O)c3ccccc3)C[C@@H]2C)c1,-4,0.42
CCc1noc(C2CCC(Nc3cnn(CC(=O)OC)c3C)CC2)n1 (stereo not drawn),-17,1.87
CN(c1ncc(Cl)cc1Cl)C1CC(N)C1 (stereo not drawn),-1,0.06
Fc1ccc(-c2cn[nH]c2[C@H]2CCCN(C3CCCC3)C2)cc1,4,-0.56
CCOC(=O)[C@H]1CCCN(c2nc(Nc3ccc(F)cc3)c3nn[nH]c3n2)C1,-10,1.62
Cc1cc(C)cc(NC(=O)c2ccc(-n3nnc4cccnc43)c(C)c2)c1,8,-1.39
O=C(Cc1cccc2ccccc12)Nc1sc2c(c1C(=O)O)CCC2,-7,0.9
CC[C@H]1C=CCN1C(=O)NCCN(C)CCc1ccccc1,-15,1.6
CCS(=O)(=O)NCc1cccn1Cc1ccccc1,-4,0.52
Cn1cc(C(=O)N2CCc3ccccc3C2)nn1,-20,2.55
CC(C)C(=O)N1CCc2ccc(OCc3ccc(C(=O)NCCN4CCCC4)o3)cc2[C@@H]1c1ccccc1,-10,1.19
COc1c(F)cccc1CN1CCn2nc(CNc3ncccn3)cc2C1,-7,1.44
Cn1cc(CC2CCCC2Nc2ccc3nccnc3n2)cn1 (stereo not drawn),-16,2.56
CC(F)(F)CC(=O)N1CC2(CCOC2)C1,-8,1.03
CCC(C)C(=O)N1CCC(C2(Cc3ccccc3C)NC(=O)N(CCCN(C)C)C2=O)CC1 (stereo not drawn),-1,0.15
Cc1cccc(-c2ccc(CN3CCN(C)CC3)cn2)c1C,-2,0.34
CCO[C@H]1CN(CC)C[C@@H]1NC(=O)c1cnoc1-c1ccccc1,3,-0.64
CCN1CCC[C@@H]1CNC(=O)Nc1ccc(Cl)cc1,-3,0.47
Cc1nc([C@@H]2COCCN2S(=O)(=O)c2cc(Cl)cc(Cl)c2)no1,-10,1.32
CC(C)(C)n1cc(C#N)cc1NC(=O)c1cc(S(C)(=O)=O)ccc1Cl,-15,1.53
Cc1cccc(CC(=O)N2CC(N3C(=O)COC3=O)C2)c1,-8,0.9
COc1ccccc1CC(C)(C)C(=O)N1CC(n2nc(C)nc2C)C1,-2,0.38
CN(Cc1cc[nH]n1)S(=O)(=O)CCC1CCC1,-8,1.16
Cc1cc(NCc2cnnn2C)ncc1Br,-13,1.67
OC1=Nc2cccc3c2c(cn3Cc2cccc(F)c2)[C@@H](c2ccccc2OCCc2ccc3c(c2)CCO3)C1,-4,0.49
COc1ccc(-c2cc(C(=O)N3CCN(c4ccc(OC)cc4)CC3)c(C)n2-c2cccc(OC)c2)cc1,-9,1.3
O=C(Cc1cccnc1)N1C[C@H]2CC[C@@H](C1)N(CC1CCC1)C2=O,-11,1.91
